Measured values from PubChem BioAssay AID485344 (National Center for Advancing Translational Sciences (NCATS), 2010).
The campaign covered roughly 340,000 compounds. About 6,900 (2%) were called active. Cut-off read from the data, not from the text of the source: active = inhibition above about 30%; inactive = below that, where a call was filed. The list shows a part of the results, in another mix than the full data. Where no call is shown, the source filed none. Some compounds were tested as several samples or in several runs, with calls that do not always agree.

Target: D(2) dopamine receptor (Homo sapiens) (UniProt P14416)
Test: HTS Assay for Allosteric Antagonists of the Human D2 Dopamine Receptor: Primary Screen for Antagonists; note: 0% is about no effect
Conditions: HEK293 TREx D2 cells, calcium flux, dopamine EC80; at 10 µM; stronger effect = higher value
Procedure, shortened: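 Compounds are added to dye-loaded, induced HEK293 T-REx cells coupled to calcium release via D2; after a 3 min kinetic read an EC80 dopamine stimulus is given and fluorescence is recorded for 3 more min.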

Chain of UniProt P14416 (P14416 whole entry, looked up): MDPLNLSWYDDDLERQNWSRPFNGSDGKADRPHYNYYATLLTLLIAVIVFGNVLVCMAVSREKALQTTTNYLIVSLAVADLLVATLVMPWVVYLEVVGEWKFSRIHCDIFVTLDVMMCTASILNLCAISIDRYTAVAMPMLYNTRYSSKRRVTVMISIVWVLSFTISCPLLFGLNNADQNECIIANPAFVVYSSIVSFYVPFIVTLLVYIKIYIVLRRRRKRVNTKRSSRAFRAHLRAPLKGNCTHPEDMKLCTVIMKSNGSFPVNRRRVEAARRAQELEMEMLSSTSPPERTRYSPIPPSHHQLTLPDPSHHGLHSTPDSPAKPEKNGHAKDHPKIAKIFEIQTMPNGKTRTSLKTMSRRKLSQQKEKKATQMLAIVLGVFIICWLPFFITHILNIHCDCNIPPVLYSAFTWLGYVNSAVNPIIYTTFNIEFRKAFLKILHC

Compound | inhibition
COc1cccc(C(c2c(O)cc(C)n(Cc3ccco3)c2=O)N2CCN(c3ccccc3)CC2)c1 (stereo not given) | -15.9%
COc1cc(Cl)c(C)cc1NC(=O)Cn1ncc2c([nH]c3ccccc32)c1=O | -2.32%
CCc1ccccc1NC(=O)c1ccc2c(c1)N(Cc1cc(C)ccc1C)C(=O)c1ccccc1S2(=O)=O | 10.3%
COC(=O)c1cc2sccc2n1Cc1nc(-c2ccc(Cl)cc2)oc1C | -9.05%
Cc1cc(C)n(C(C)CC(=O)NCc2ccc(N(C)C)cc2)n1 (stereo not given) | 8.63%
CCOC(=O)c1[nH]ncc1CN1CCCC(C(=O)c2cc(Cl)ccc2OC)C1 (stereo not given) | active: 72.9%
COc1ccc(OC)c(NC(=O)CSc2nc3ccccc3nc2N2CCCCC2)c1 | 4.07%
COc1ccc(NC(=O)COc2ccc(S(=O)(=O)NC3CCCCC3)cc2)cc1OC | -10.1%
O=C(Nc1ccccc1)c1ccc(Br)c(S(=O)(=O)N2CCCCC2)c1 | -1.28%
COc1ccc(NC(=O)C2CCC(CNS(=O)(=O)c3ccc(Br)s3)CC2)cc1OC (stereo not given) | -0.785%
CCCC(=O)OCc1cnc(C)c2oc(=O)c(C(=O)Nc3ccccc3)cc12 | -0.276%
CC(NC(=O)CCNS(=O)(=O)c1cccc2nsnc12)c1ccccc1 (stereo not given) | 2.29%
Cc1ccc2c(=O)cc(CSCC(=O)Nc3nnc(C)s3)[nH]c2c1 | 21%
O=C(Nc1cccc(Cl)c1)c1cnc[nH]1 | 9.12%
COc1ccc(Br)cc1C1Sc2ccccc2NC2=C1C(=O)c1ccccc12 (stereo not given) | -22.8%
O=C(COc1ccccc1)Nc1nnc(S(=O)(=O)N2CCCC2)s1 | 19.9%
CCOc1ncccc1C(=O)N1CCN(Cc2ccc3c(c2)OCO3)CC1 | active: 74.8%
O=C(OCC1CCCO1)c1ccc2c(c1)N(Cc1ccccc1Cl)C(=O)c1ccccc1S2(=O)=O (stereo not given) | 4.6%
O=C(Nc1ccc2oc(-c3ccc4ccccc4c3)nc2c1)c1ccccc1F | -23.8%
COc1ccccc1NC(=O)C(Cc1ccccc1)NS(=O)(=O)c1ccc2c(c1)c(=O)n(C)c(=O)n2C (stereo not given) | 22.2%
CCOc1ccc(-n2c(=O)c3c4c(sc3n(CC(=O)Nc3cccc(C(F)(F)F)c3)c2=O)CCCCC4)cc1 | 2.97%
O=C(NCc1ccc(F)cc1)c1c(O)nc2ccccn2c1=O | -12.5%
Cc1cc(Nc2cccc(C(F)(F)F)c2)nc2ccc(NC(=O)c3ccc(=O)[nH]c3)cc12 | 0.428%
CCCCOc1cccc(NC(=O)CSc2nnc(C)s2)c1 | 2.06%

Compound | inhibition
OC(COc1ccccc1)CN1CCN(Cc2ccc3c(c2)OCO3)CC1 (stereo not given) | active: 35.9%
CN(Cc1ccccc1)c1ncnc2onc(-c3ccc(F)cc3)c12 | 2%
COc1ccc(-c2csc(NC(=O)CN3C(=O)NC4(CCCC4)C3=O)n2)cc1 | active: 38.3%
Cc1ccc(CS(=O)(=O)c2ncc(Cl)c(C(=O)Nc3nc4ccc(F)cc4s3)n2)cc1 | -10.7%
COC(=O)[C@H]1[C@H]2C[C@H]3c4[nH]c5ccccc5c4CCN3C[C@@H]2CC[C@@H]1O | active: 43.4%
CCOC(=O)c1c(S(=O)(=O)NCC(=O)NCc2cccc(C)c2)c(C)n(C)c1C | 11.2%
Cc1ccc(-c2nc3c(c(SCC(=O)Nc4ccccc4Cl)n2)Cc2c(CO)cnc(C)c2O3)cc1 | -18.6%
CCCCN(C)C(=O)C1CCC(CNS(=O)(=O)c2ccc(Cl)cc2)CC1 (stereo not given) | -8.47%
CCC(Oc1ccccc1)C(=O)Nc1cc(-c2ccccc2OC)nn1-c1ccccc1 (stereo not given) | -4.94%
COCCNc1nc2c(S(=O)(=O)c3ccc(C)c(C)c3)nnn2c2ccc(Cl)cc12 | 9.87%
Cc1nc2nncn2c(NCc2ccc(F)cc2)c1C | -11.8%
COc1cc(OC)cc(C(=O)Nc2ccc(S(=O)(=O)Nc3ncccn3)cc2)c1 | -19.3%
Cc1ccc(NC(=O)CCS(=O)(=O)c2cc3c4c(c2)CCN4C(=O)CC3)c(C)c1 | 9.08%
O=C(NCc1ccc2c(c1)CCN2C(=O)c1ccc(Cl)cc1)c1cccc(F)c1 | -20.9%
CCc1noc(-c2ccc(N3CCCCC3C)c([N+](=O)[O-])c2)n1 (stereo not given) | 18.1%
O=C1OC2(c3ccccc31)c1cc(I)c(O)c(I)c1Oc1c2cc(I)c(O)c1I | active: 53.3%
CC(=O)Nc1ccccc1/C=C/c1ccc2c(C)ccc(O)c2n1 | active: 33.2%
COc1ccc(CCNC(=O)CSc2nc(-c3ccc(F)cc3)cc(C(F)(F)F)n2)cc1OC | 1.78%
Cc1cccc(C(=O)Nc2nnc(S(=O)(=O)N(C)Cc3ccco3)s2)c1 | 7.47%
Cc1ccc(NC(=O)CN2C(=O)C3(SCC(=O)N3c3cccc(Cl)c3)c3ccccc32)cc1C (stereo not given) | 4.75%
Cc1ccc(NS(=O)(=O)c2ccc3c(c2)CCCN3C(=O)C2CCC2)cc1Cl | -15%
COc1cccc(NC(=O)CC(C)S(=O)(=O)c2ccc3c(c2)NC(=O)CO3)c1 (stereo not given) | -8.82%
Cc1c(Cl)cccc1NC(=O)c1ncn(-c2ccccc2)n1 | -0.638%
O=C(O)c1cccc(-n2c(-c3cnccn3)n[nH]c2=S)c1 | active: 30.3%

Compound | inhibition
Cc1ccc(-c2csc(=Nc3ccc(F)cc3)n2Cc2ccc3c(c2)OCO3)cc1C | 6.12%
CCOc1ccccc1NS(=O)(=O)c1ccc(-c2cnc(C3CC3)o2)cc1 | 5.17%
Cc1ccc(-c2ccc(=O)n(CC(=O)Nc3cccc(C#N)c3)n2)cc1 | -15.7%
CCOc1ccc(-c2nc3c(c(SCC(=O)N4CCCCC4)n2)Cc2ccccc2O3)cc1 | 9.14%
COc1ccc(Cn2nnnc2C(C(C)C)N2CCN(c3ccccc3OC)CC2)cc1 (stereo not given) | active: 53%
O=C(C1CCCN(S(=O)(=O)c2ccc(Br)s2)C1)N1CCN(c2ccccc2)CC1 (stereo not given) | 12.5%
CNC(=O)C1CCC(Cn2c(=O)c3sccc3n(CC(=O)NCc3ccc(F)cc3)c2=O)CC1 (stereo not given) | -9.38%
CC(=O)N1CCCc2cc(S(=O)(=O)N3CCCC(C(=O)Nc4cc(Cl)ccc4C)C3)ccc21 (stereo not given) | 9.93%
CCc1ccc2c(CN3CCC(C(=O)OC)CC3)cc(=O)oc2c1 | active: 106%
COc1ccc(NC(=O)c2ccc3c(=O)n4nc(Nc5cccc(Cl)c5C)sc4nc3c2)cc1 | 1.94%
Cc1ccc(C2CCN(C(=O)c3cnn(-c4ccc(C)cc4)c3C3CCN(C(=O)OC(C)(C)C)CC3)C2)cc1 (stereo not given) | 5.42%
C=Cc1ccc(Cn2c(C(=O)O)c(CNCc3ccccc3)c3ccc(C)cc32)cc1 | 4.84%
CC(=O)Nc1ccc(NC(=O)c2oc3ccc4c(c3c2C)C(=O)CC(C)(C)O4)cc1 | -4.86%
O=c1c(N2CCc3ccccc3C2)csc2ccccc12 | -11.3%
O=C(NCCc1ccccc1)c1ccc2c(c1)N(Cc1ccccc1F)C(=O)c1ccccc1S2=O (stereo not given) | 5.24%
COc1ccc(C(C(=O)NC2CCCC2)N(CCC(C)C)C(=O)CCC(=O)Nc2cc(C)on2)cc1 (stereo not given) | active: 34.8%
N#C/C(=C\c1ccc(Cl)cc1)c1nc(-c2cc3c(ccc4ccccc43)oc2=O)cs1 | 3.98%
O=C(Cn1c(=O)n(-c2ccccc2)c(=O)c2sc3ccccc3c21)NC1CCCC1 | -7.32%
Cc1ccc(C)c(Nc2nn3c(=O)c4ccc(C(=O)NCc5cccs5)cc4nc3s2)c1 | -23.8%
COc1cccc(N2CCN(c3ncnc4onc(-c5ccc(Cl)cc5)c34)CC2)c1 | 22.1%
CN(C1CCCCC1)S(=O)(=O)c1ccc2c(c1)c(=O)c(C(=O)NCc1ccc(Cl)cc1)cn2C | -2.42%
O=C(CN1C(=O)CC(c2ccc(F)cc2)=Nc2ccccc21)NCc1ccccc1Cl | -9.98%
O=C(Nc1ccc2nc(SCC(=O)N3CCOCC3)sc2c1)c1ccc(Cl)cc1 | -10.3%
O=C(c1ccccc1)N1CCCCC1CCN1CCCCC1 (stereo not given) | -13.2%

Compound | inhibition
CCN(Cc1ccccc1)C(=O)C(CC(C)C)NS(=O)(=O)c1ccc2c(c1)CCN2C(C)=O (stereo not given) | 0.723%
CCOc1ccc(NC(=O)C23CC4CC(C2)CC(c2ccccc2)(C4)C3)cc1 | active: 31.3%
Cc1cccc(N2CCN(C(=O)c3nn(C)c4c3CS(=O)(=O)c3ccccc3-4)CC2C)c1 (stereo not given) | 28.1%
Cc1ccc(-n2c(=O)c3ccccc3n(CC(=O)Nc3cccc(C(F)(F)F)c3)c2=O)cc1 | 5.81%
COc1cc(Cl)c(NS(=O)(=O)c2ccc(-c3coc(C)n3)cc2)c(OC)c1 | 21.5%
CC1CCCCN1CCCNC(=O)Cn1ncc2c3ccccc3n(Cc3ccccc3F)c2c1=O (stereo not given) | 0.207%
Cc1ccc(-c2cc(C(F)(F)F)c(C#N)c(SCC(=O)Nc3ccccc3F)n2)cc1 | 0.682%
CCCOC(=O)c1cc(-c2ccc(C=O)o2)ccc1Cl | active: 30.7%
CCN(c1ncnc2c1cnn2-c1cccc(Cl)c1)C1CCCCC1 | 10.4%
COCCn1c(C)cc(O)c(C(c2ccc(Cl)cc2)N2CCCCC2)c1=O (stereo not given) | -0.898%
Cc1cc(C)c(NC(=O)CN2C(=O)CCSc3ccc(S(=O)(=O)N4CCCC4)cc32)c(C)c1 | 13.3%
COc1cccc(CNC(=O)CN2C(=O)CSc3ccc(S(=O)(=O)N4CCCC4)cc32)c1 | 4.77%
CCN1CCc2c(C#N)c(NCc3ccccc3)nc(N(CC)CC)c2C1 | active: 45.8%
CSc1ccc(CNC(=O)Cn2ccc3cc(S(=O)(=O)N4CCCC4)ccc32)cc1 | -6.68%
O=c1[nH]c2ccccc2cc1CN(CC1CCCO1)S(=O)(=O)c1ccccc1 (stereo not given) | active: 34.6%
COc1ccccc1CNC(=O)CS(=O)(=O)Cc1nc(-c2ccccc2C)oc1C | 19.6%
CCOCc1cc(=O)[nH]c(SC)n1 | active: 30.3%
CN(C)c1ccc(C(=O)NCc2ccc3c(c2)CCN3C(=O)c2ccccc2)cc1 | 8.71%
CC(C)CCNC(=O)CSc1nc2ccccc2nc1Cc1ccc(Cl)cc1 | -9.07%
CN(C)c1ccc(CNC(=O)c2sc3ncccc3c2-n2cccc2)cc1 | 13.6%
CC1CCN(c2nc(-c3ccc(Br)cc3)nc3ccccc23)CC1 | 23.8%
Nc1[nH]n2c(=O)c3c(nc2c1N=Nc1ccccc1)CCCC3 | active: 37.5%
Cc1cc(C)cc(NC(=O)CCN2C(=O)c3ccccc3Sc3ncccc32)c1 | -26.3%
